This note sets out measurements from PubChem BioAssay AID1996.

In brackets after ≈: the same amount, converted by molar mass.

The conditions of this series: buffer; pH 7.4; 200.0 µM.
For `NC(=O)NCC(=O)N1CCN(S(=O)(=O)c2ccc(Cl)s2)CC1`, the solubility (kinetic) (usually solubility judged after dilution from a stock solution rather than from solid) amounted to 52.7 µg/mL (≈ 144 µM).
In turn, `Cc1ccc(CNC(=O)CNC(=O)c2c(C)nn(C)c2Cl)cc1` registered a kinetic solubility above 50.2 µg/mL.
`O=C(O)c1ccc(N=C2SCC(=O)N2Cc2ccccc2)cc1`: the solubility (kinetic) is above 49 µg/mL.
Turning to `COc1ccc(CN(Cc2cccn2C)S(=O)(=O)c2ccccc2)cc1`, the kinetic solubility was 2.4 µg/mL (≈ 6.48 µM).
With `O=C(CNC(=O)c1cccc([N+](=O)[O-])c1)OCCCC(=O)c1ccc(F)cc1`, the solubility (kinetic) was above 58.3 µg/mL.
The compound `CCN1CCN(C(=O)NCc2ccccc2)CC1` came in with a solubility (kinetic) of 31 µg/mL (≈ 125 µM).
In turn, `O=C(c1ccccn1)N1CC=C(c2ccccc2)CC1` gave a solubility (kinetic) of 37.8 µg/mL (≈ 143 µM). The solubility kinetic values of the last two compounds are within 1.5-fold of each other.
Consider `Cc1ccccc1NC(=O)Nc1ccccc1N1CCCCC1`, for which the solubility (kinetic) was 0.2 µg/mL (≈ 0.646 µM).
`Cc1noc(C(=O)Nc2cccc(O)c2)c1Cl` came in with a solubility (kinetic) of 28.9 µg/mL (≈ 114 µM).
Turning to `CC1CCCC(C)N1C(=S)NCc1ccco1` (stereo unspecified), the kinetic solubility was 24.1 µg/mL (≈ 95.5 µM).
As for `COc1ccc(/C(C)=N/NC(=O)c2ccncc2)cc1`, the solubility (kinetic) was above 40.4 µg/mL.
In turn, `Cc1cc2c(c(SCC#N)n1)C(=O)OC2` gave a solubility (kinetic) above 33 µg/mL.
The compound `CC(=O)CCc1oc2ccc([N+](=O)[O-])cc2c1-c1ccc(C)o1` came in with a solubility (kinetic) of 3.1 µg/mL (≈ 9.89 µM).
For the compound `O=C(CCN1CCN(c2ccccc2)CC1)c1ccc(Cl)cc1`, the kinetic solubility turned out to be 47.5 µg/mL (≈ 144 µM). Compared with the last compound, the solubility kinetic is about 15-fold higher.
The compound `CC(=O)NCCOc1nc(N2CCCCC2)nc(N2CCCCC2)n1` displayed a kinetic solubility above 52.3 µg/mL.
For `COCC(C)n1c(C)cc(C(=O)CSc2ncccn2)c1C` (stereo unspecified), the kinetic solubility is above 47.9 µg/mL.
